Experimental data from the supplement of paper PMC10126150.
Sequences with one replicate were seen in a single cluster, so their values are uncertain.

System: ATP
Assay: switch fluorescence ratio, 500 uM ATP over buffer (Cy3 cluster intensity, sum of 5 cycles each) (fold (ratio)); higher = stronger signal-on switching upon ATP binding; sequences stand for … in TCGTCGGCAGCGTCAGATGTGTATAAGAGACAGTTTTTTTTTTTTTTTTTTTTTTTTT…TC
Settings: aptamer strand: ATP DNA aptamer (quencher-CACCTGGGGGAGTATTGCGGAGGAAGG + anchor), 100 nM annealed; ATP concentration: 500 uM; one replicate
In short: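 Values give the fluorescence ratio for each switch-domain sequence, averaged from per-cluster ratios of summed target-cycle to summed buffer-cycle Cy3 intensity. The Cy3-labelled switching-strand clusters sat on a modified Illumina MiSeq flow-cell, were annealed to 100 nM quencher-labelled ATP aptamer, and were imaged in selection buffer, then after 15 min with 500 uM ATP at 22 °C. Five cycles ran with NaOH stripping and re-annealing between them, and clusters outside 100-1000 RFU were excluded.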
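Further: ATP exposure 15 min at 22 °C before imaging.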

Row | Sequence | switch fluorescence ratio
1 | TCTTGCTATC | 1.28
2 | AAGGTTTACT | 1.02
3 | ACATTTTGGG | 0.948
4 | CGTGTGCGAC | 0.971
5 | CAAAATGCCG | 0.981
6 | TCGCATGTAA | 1.11
7 | GTTTCAAAAC | 0.994
8 | CCTGGGGTTA | 1.09
9 | CAACATGCAT | 1.23
10 | CAATAGGCGG | 0.997
11 | AGAGAGAAGG | 0.976
12 | ATCATGAAAC | 1
13 | AATCACGTTC | 0.999
14 | CGAAGGAGAA | 0.965
15 | TAAGACTGAA | 0.953
16 | ACTATTCCGA | 1.05
17 | TCGGTAGCTG | 1.11
18 | CTTCAATGAT | 1.01
19 | TGCTAAAGTT | 1.02
20 | GGTAAAGATG | 0.981
21 | GCGATCGAAA | 1.05
22 | TACATTAAAC | 0.973

Row | Sequence | switch fluorescence ratio
23 | TCGCGGGGAC | 1.27
24 | AGGCGGTCTC | 1.03
25 | CGTTTTCGAC | 0.978
26 | GACCTCTATC | 1.04
27 | CTCCTGGCGG | 1.21
28 | TACTGCATTT | 1
29 | AAAACGGTAG | 0.991
30 | TCCAGAGACC | 1.04
31 | CGGTTCACGG | 1.01
32 | AGTCGTTGGC | 1.01
33 | CGATGATGTA | 0.979
34 | GACGTGAGAT | 1.15
35 | AGCTAGGCGG | 1.1
36 | GCGATACTTC | 4.35
37 | AGACACAGGG | 1.05
38 | GGAACTGCGG | 0.951
39 | GGCAATTTCG | 1.05
40 | AACTTGCCAT | 1.02
41 | TAAAACTTTC | 1.02
42 | GTCATTGGAA | 1
43 | TCAGACCACG | 0.992
44 | TCAATACTT | 1.12

Row | Sequence | switch fluorescence ratio
45 | GCATGCAGTC | 1.01
46 | TTACGTCAGT | 1.03
47 | GACGGTGGGT | 1.02
48 | GACTCCCCGT | 1.65
49 | CACATCATAG | 0.994
50 | CAGCGATGGG | 1.05
51 | GCGCTAATC | 1.83
52 | AAATGGATGG | 0.946
53 | AAACTGCGAT | 1.1
54 | GGGAGTCTGA | 1.01
55 | ATAGCGTCTG | 1.03
56 | GAGAACCTG | 0.988
57 | TCGTTCTGAT | 0.942
58 | CAGTATGGCT | 0.977
59 | GTTTGGAGTT | 0.975
60 | CGGTATTAGC | 1.04
61 | GGTATATACC | 1.07
62 | GAGGTGCTTT | 1.03
63 | GTTGCCGACA | 1.03
64 | AAGGTTATCA | 0.964
65 | CAAATTAATG | 0.981
66 | TAGGTAGACT | 0.92

Row | Sequence | switch fluorescence ratio
67 | GCGATCGTGT | 0.996
68 | CAGTCTGTTC | 1.01
69 | GGGGCGAAAA | 0.993
70 | TTGCATCCCG | 0.991
71 | AACCATGATG | 0.973
72 | GAGCAGTCCT | 1.18
73 | TGTTGCCG | 1.04
74 | CAGGATTTAT | 1.05
75 | GATCAAGC | 0.982
76 | AACGTGTCCT | 1.02
77 | TTTCCTCTAA | 1.04
78 | CCCTAGGACC | 1.02
79 | CGTAATAATT | 1.05
80 | GATCCTGTAT | 1.01
81 | TTTTCTTAAG | 1.02
82 | GCACGAATTG | 1.11
83 | GCGTAAGGAA | 0.971
84 | GCGGTCAAGC | 1.02
85 | AATTGTGCTC | 1.04
